The values that follow come from publication PMC5836133.

The list shows a part of the results. At the low end of the ranking the order means little.

For the assay, the system named is T1, GST-NbGlk1(82-244).
T1 sequence: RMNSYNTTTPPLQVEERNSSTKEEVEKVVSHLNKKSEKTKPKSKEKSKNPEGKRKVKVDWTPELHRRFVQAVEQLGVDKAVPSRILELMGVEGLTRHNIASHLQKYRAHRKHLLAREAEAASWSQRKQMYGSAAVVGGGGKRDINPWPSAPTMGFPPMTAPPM
Description: protein-binding microarray.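 Note: rank-based score ranging −0.5 to +0.5 with E above 0.45 taken as significant binding.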 As to conditions: NbGlk1 is a Golden2-like transcription factor of Nicotiana benthamiana; high values mean tight binding; most listed sequences are background and not binding sites; double strand, one strand shown.
ACGACGGG: the binding signal is -0.205 E-score.
AATTACAC showed a binding signal of 0.225 E-score.
Regarding AGTTGAAG, the binding signal was -0.0841 E-score.
For CACATTGG, the binding signal is -0.124 E-score.
For AGGCGAAT, the binding signal worked out at 0.256 E-score.
In turn, ATAGGAGC returned a binding signal of -0.0934 E-score.
For ACCGGACC, the binding signal is -0.206 E-score.
ACCGGGAG: the binding signal was -0.258 E-score.
The sequence ATTAAGGG displayed a binding signal of 0.0229 E-score.
In the case of AGAGATTG, the binding signal was found to be 0.325 E-score.
As to AGAAGGAT, the binding signal was 0.111 E-score.
With CAAATCTC, the binding signal stood at 0.426 E-score.
ATATTCCC had a binding signal of 0.393 E-score.
For the sequence ATTTATTC, the binding signal was 0.146 E-score.
As to AACGCAAT, the binding signal was found to be 0.344 E-score.
In turn, ACAGTCAG gave a binding signal of -0.164 E-score.
AAATTAAT had a binding signal of 0.107 E-score.
As to ATTAGGTG, the binding signal came out at 0.017 E-score.
In turn, ACACACAG showed a binding signal of 0.0767 E-score.
The same measure for CACATGTC: -0.123 E-score; for ACAATTTG: 0.0524 E-score; for AGAACACG: -0.11 E-score.
In turn, CACATAAC showed a binding signal of -0.0587 E-score.
The sequence ACTTTTCT displayed a binding signal of -0.0504 E-score.
The figure for AGATATCT is 0.48 E-score; for AGCATCTG it is -0.00169 E-score; for ATGAGTAG it is 0.0477 E-score.
For ACGACCGT, the binding signal was -0.191 E-score.
The sequence AACCGACG gave a binding signal of 0.037 E-score.
CACTGTCG returned a binding signal of -0.109 E-score.
In turn, CACAATAA gave a binding signal of 0.14 E-score.
Turning to AACAAAAA, the binding signal came to 0.12 E-score.
With ATTAGTTA, the binding signal is -0.0656 E-score.
For AATGCCTA, the binding signal was 0.0141 E-score.
As for ATTGTCCC, the binding signal is 0.075 E-score.
ACACTAAT registered a binding signal of 0.186 E-score.
Sequence AGAGGATG came in with a binding signal of -0.0479 E-score.
In turn, AAACCAAG showed a binding signal of 0.0458 E-score.
The sequence CAGACCCC had a binding signal of -0.203 E-score.
Sequence CAAAAAGA gave a binding signal of 0.0261 E-score.
The same measure for AGGTAGCG: -0.0617 E-score; for AACCATTG: -0.178 E-score; for ATCAGTCA: 0.0635 E-score.
As to ACAGCCCA, the binding signal is -0.239 E-score.
On to AAAGAGTT, for which the binding signal was 0.112 E-score.
The figure for AATATTGC is 0.225 E-score.
The same measure for AATTGAAG: 0.0609 E-score.
AAGATTCA displayed a binding signal of 0.205 E-score.
ATCGTAGC had a binding signal of 0.134 E-score.
Take ATAGATGC: the binding signal was determined as 0.0568 E-score.
The figure for ATCACCTA is 0.0666 E-score; for AACCTTAT it is -0.134 E-score; for AACGGGAA it is 0.0521 E-score.
Take AAAGAGGC: the binding signal is -0.108 E-score.
The same measure for ACCGGCGC: -0.167 E-score.
AACACCGG showed a binding signal of -0.0404 E-score.
AGGCAGAC yielded a binding signal of -0.385 E-score.
ATCACGGC had a binding signal of 0.11 E-score.
In turn, AACTTCTG had a binding signal of -0.143 E-score.
AGCAAATG registered a binding signal of -0.0847 E-score.
Take ATATTGAC: the binding signal was determined as 0.153 E-score.
ATTCCGTG gave a binding signal of 0.306 E-score.
The sequence ATTAAGTA displayed a binding signal of 0.199 E-score.
The figure for AACCCGCT is -0.215 E-score.
For the sequence AATTGAGA, the binding signal is 0.135 E-score.
Consider CAAGATGA, for which the binding signal came to 0.0465 E-score.
Turning to ATCCGATA, the binding signal was found to be 0.376 E-score.
For AATTCAAT, the binding signal came to 0.0348 E-score.
With ATGAATGA, the binding signal was found to be 0.0334 E-score.
The figure for ACACCAAA is 0.071 E-score; for ACCTGCGA it is -0.0456 E-score; for CAACAGGA it is -0.0431 E-score.
ACCGCTCC: the binding signal is -0.0914 E-score.
The same measure for ATGGACTG: -0.246 E-score; for AGAGACAT: -0.0498 E-score.
Consider CAACCCTG, for which the binding signal was -0.0918 E-score.
For the sequence AATTCGAC, the binding signal was -0.0337 E-score.
The same measure for ATCCCTCC: 0.0947 E-score; for CAACCGGG: -0.243 E-score; for AGACCTCG: -0.142 E-score.
The same measure for ACTTACAT: 0.082 E-score.
The same measure for AAGGTCTC: -0.255 E-score; for ACCTGTCA: -0.202 E-score; for AGGTCTAA: -0.117 E-score.
AGTGGTGG gave a binding signal of -0.0561 E-score.
The same measure for ACCAGAGG: -0.138 E-score; for AAACGCTA: -0.0214 E-score.
Turning to AATACCCG, the binding signal is -0.0563 E-score.
Consider AGTTCTGG, for which the binding signal is 0.0355 E-score.
AAGTAAAC displayed a binding signal of -0.00897 E-score.
Take ATTATCAC: the binding signal was determined as 0.132 E-score.
Take ACCTGCCC: the binding signal was -0.26 E-score.
For the sequence ACATCGCT, the binding signal was -0.0352 E-score.
With ACGGCCAT, the binding signal was -0.225 E-score.
In turn, AGGAATAA returned a binding signal of 0.166 E-score.
The sequence ATTAGGAC had a binding signal of 0.00748 E-score.
For ACACTCCT, the binding signal is -0.103 E-score.
For CAAAAACG, the binding signal was -0.0685 E-score.
For the sequence ACGAGATG, the binding signal is -0.115 E-score.
ATGTATGG gave a binding signal of -0.031 E-score.
With AGTCTTGA, the binding signal is -0.0323 E-score.
For CAAGTCGG, the binding signal was -0.092 E-score.
The figure for AGGGCCTG is -0.172 E-score; for ACGTAGAC it is -0.137 E-score; for ATCCTCGA it is 0.224 E-score.
The figure for AGTTCACG is -0.0796 E-score; for AGGGTTAC it is -0.0759 E-score; for ATCTTAGG it is 0.113 E-score.
Sequence ACCTTCCT registered a binding signal of -0.173 E-score.
Regarding AAACCGTA, the binding signal is -0.0306 E-score.
The figure for AAGCGGCC is -0.322 E-score.
As for ACATATCT, the binding signal stood at 0.344 E-score.
In the case of ACAATGAT, the binding signal stood at 0.0877 E-score.
Consider AGAAAGCG, for which the binding signal was -0.102 E-score.
In turn, AAAAGAGG gave a binding signal of -0.0266 E-score.
As to AGGCCACG, the binding signal was -0.286 E-score.
In turn, CAAAAGCC yielded a binding signal of -0.0928 E-score.
ACCCTAAT showed a binding signal of -0.0342 E-score.
The sequence AGAGAAAG showed a binding signal of -0.0649 E-score.
On to AAAAACCG, for which the binding signal was 0.0594 E-score.
For ATACCTAA, the binding signal amounted to 0.109 E-score.
The figure for ACAGCGGG is -0.128 E-score; for AAGGCTTC it is -0.291 E-score.
For the sequence CAAGGATG, the binding signal was -0.0257 E-score.
In the case of AGCTCCGC, the binding signal was -0.302 E-score.
AAACGTCT had a binding signal of -0.176 E-score.
On to AGCGCTAC, for which the binding signal was -0.132 E-score.
Take ACCGATCT: the binding signal came out at 0.0691 E-score.
Sequence ACCGATAG registered a binding signal of 0.0199 E-score.
As to ATTTTAAC, the binding signal is 0.202 E-score.
ACTATTGA gave a binding signal of 0.0562 E-score.
Turning to AACTGCAA, the binding signal was determined as 0.0843 E-score.
With AGGATTTG, the binding signal was 0.383 E-score.
On to AGCCCTGG, for which the binding signal is -0.348 E-score.
For the sequence AAGAAGCC, the binding signal is -0.208 E-score.
Turning to ATTTCTGG, the binding signal was 0.217 E-score.
In the case of AATGCTAC, the binding signal is -0.173 E-score.
Take ACCCAACC: the binding signal was -0.161 E-score.
Regarding ATTTCGAC, the binding signal is 0.266 E-score.
In the case of ACTCTCAT, the binding signal came to 0.0635 E-score.
Regarding ATAACGAC, the binding signal was determined as 0.0317 E-score.
Turning to ACCCGGAG, the binding signal is -0.244 E-score.
Turning to AACTTTAA, the binding signal worked out at 0.0354 E-score.
Take AACGGCAG: the binding signal was -0.179 E-score.
For the sequence CAAGACTC, the binding signal was -0.127 E-score.
CACGGCGA gave a binding signal of -0.105 E-score.
For ATAGAGGA, the binding signal worked out at 0.14 E-score.
In turn, ATCTGCGA came in with a binding signal of 0.35 E-score.
On to CAGCGGGC, for which the binding signal is -0.337 E-score.
With CACAGCTG, the binding signal was -0.0125 E-score.
ATGGTCAA: the binding signal is -0.107 E-score.
With ACGGCTCT, the binding signal is -0.0979 E-score.
The figure for ATGCTGCA is -0.0645 E-score; for ACGAATCA it is 0.247 E-score; for ACTCATGA it is 0.0451 E-score.
For AGCCCGGC, the binding signal is -0.313 E-score.
Turning to CAAGGTAA, the binding signal came out at 0.174 E-score.
The same measure for CACTGCAC: -0.084 E-score.
On to ACATAAAA, for which the binding signal stood at 0.123 E-score.
For AAAGGTCT, the binding signal was -0.0474 E-score.
Take AGTAGTCA: the binding signal was -0.093 E-score.
The sequence AAGTTCAC gave a binding signal of -0.0733 E-score.
The same measure for ACGGCGAG: -0.127 E-score.
Take CAAGGGAA: the binding signal worked out at 0.0129 E-score.
In the case of ATCAGCCG, the binding signal is -0.0643 E-score.
Consider ACGAGTTC, for which the binding signal is -0.18 E-score.
In turn, AAATACCC showed a binding signal of 0.0277 E-score.
Turning to AATGTTTA, the binding signal worked out at 0.131 E-score.
In turn, AGAAGCTC returned a binding signal of -0.283 E-score.
With ACGGACTA, the binding signal is -0.0842 E-score.
Consider ACCTAAGT, for which the binding signal was -0.147 E-score.
The same measure for ACCCTCAC: -0.194 E-score.
